Laboratory results published in patent US20060063236A1 (AEROVANCE, published 2006).

Tests used:
[1] = molecular target: T1, IL-9 receptor alpha chain (IL-9Rα) (human, UniProt Q01113 41-521); assay: cell-based or functional assay
T1 sequence (looked up): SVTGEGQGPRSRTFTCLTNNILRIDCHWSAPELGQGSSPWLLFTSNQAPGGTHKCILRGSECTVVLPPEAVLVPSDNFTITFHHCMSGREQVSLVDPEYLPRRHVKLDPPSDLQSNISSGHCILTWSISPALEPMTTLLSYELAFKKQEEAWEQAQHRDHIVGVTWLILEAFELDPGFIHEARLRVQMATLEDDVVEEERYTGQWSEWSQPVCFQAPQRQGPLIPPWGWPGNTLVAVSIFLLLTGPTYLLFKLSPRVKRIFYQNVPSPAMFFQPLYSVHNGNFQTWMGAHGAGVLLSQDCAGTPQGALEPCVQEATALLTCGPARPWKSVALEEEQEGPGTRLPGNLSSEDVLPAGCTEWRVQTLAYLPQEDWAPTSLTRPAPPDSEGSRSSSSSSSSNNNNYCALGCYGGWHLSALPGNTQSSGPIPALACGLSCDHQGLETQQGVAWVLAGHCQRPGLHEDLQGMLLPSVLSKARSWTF

[2] = molecular target: T2, IL-4 receptor alpha chain (IL-4Rα) (human, UniProt P24394 26-825); assay: cell-based or functional assay
T2 sequence (looked up): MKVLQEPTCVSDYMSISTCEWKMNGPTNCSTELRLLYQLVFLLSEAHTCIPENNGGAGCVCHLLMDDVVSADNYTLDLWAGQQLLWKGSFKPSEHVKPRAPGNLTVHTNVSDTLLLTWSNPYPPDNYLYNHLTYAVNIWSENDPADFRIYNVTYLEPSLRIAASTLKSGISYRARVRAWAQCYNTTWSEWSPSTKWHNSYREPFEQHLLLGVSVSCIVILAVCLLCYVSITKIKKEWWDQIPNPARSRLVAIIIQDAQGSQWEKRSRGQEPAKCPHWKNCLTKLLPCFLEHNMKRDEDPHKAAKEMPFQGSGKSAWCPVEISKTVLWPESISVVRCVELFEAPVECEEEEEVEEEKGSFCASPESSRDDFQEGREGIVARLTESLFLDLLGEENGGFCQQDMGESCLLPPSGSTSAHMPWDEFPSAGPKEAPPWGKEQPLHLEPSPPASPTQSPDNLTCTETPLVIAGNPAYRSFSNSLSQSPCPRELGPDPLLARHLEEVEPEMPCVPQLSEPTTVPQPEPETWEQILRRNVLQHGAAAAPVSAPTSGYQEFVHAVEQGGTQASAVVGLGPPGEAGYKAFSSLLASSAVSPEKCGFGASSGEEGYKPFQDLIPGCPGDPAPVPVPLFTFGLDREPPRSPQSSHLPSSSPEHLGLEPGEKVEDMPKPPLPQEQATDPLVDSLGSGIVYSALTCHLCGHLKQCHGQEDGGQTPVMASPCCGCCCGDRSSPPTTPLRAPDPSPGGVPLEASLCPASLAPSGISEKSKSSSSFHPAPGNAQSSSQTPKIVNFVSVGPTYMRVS

IC50, inhibition of IL-9 induced Mo7e cell proliferation (AlamarBlue) [1]: 29.6 nM
IC50, inhibition of IL-4 induced TF-1 cell proliferation (AlamarBlue) [2]: 0.624 nM
B1: untagged IL-9RA/IL-4RA chimeric polypeptide (ligand)
chain: [about 120 residues not given here]HKCDITLQEIIKTLNSLTEQKTLCTELTVTDIFAASKNTTEKETFCRAATVLRQFYSHHEKDTRCLGATAQQFHRHKQLIRFLKRLDRNLWGLAGLNSCPVKEANQSTLENFLERLKTIMDEKDSKCSS
